Measurements taken from the supplement of paper PMC8728848.
The other results are listed elsewhere or left out.

What was measured:
Experiment in all cases: glycan array binding signal (z-score within array); higher = stronger binding
Settings in all cases: glycan notation: IUPAC condensed, linker removed
Fuc(a1-2)Gal = molecular target: Fuc(a1-2)Gal
In short: (§1)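 Glycan array data were curated from 3228 arrays in the Consortium for Functional Glycomics database and kept only where the protein sequence was available. Glycan names were converted to IUPAC-condensed notation, and columns mapping to the same glycan were averaged. The binding signal is a within-array Z-score, averaged across arrays of the same protein sequence at different concentrations or buffers and across linkers. Negative Z-scores can be read as non-binding.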

Fuc(a1-2)Gal(b1-3)GalNAc = molecular target: Fuc(a1-2)Gal(b1-3)GalNAc
In short: as §1

[1] = molecular target: Fuc(a1-2)Gal(b1-3)GalNAc(a1-3)[Fuc(a1-2)]Gal(b1-4)Glc
In short: as §1

[2] = molecular target: Fuc(a1-2)Gal(b1-3)GalNAc(a1-3)[Fuc(a1-2)]Gal(b1-4)GlcNAc
In short: as §1

[3] = molecular target: Fuc(a1-2)Gal(b1-3)GalNAc(b1-3)Gal
In short: as §1

[4] = molecular target: Fuc(a1-2)Gal(b1-3)GalNAc(b1-3)Gal(a1-4)Gal(b1-4)Glc
In short: as §1

[5] = molecular target: Fuc(a1-2)Gal(b1-3)GalNAc(b1-4)[Neu5Ac(a2-3)]Gal(b1-4)Glc
In short: as §1

Fuc(a1-2)Gal(b1-3)GlcNAc = molecular target: Fuc(a1-2)Gal(b1-3)GlcNAc
In short: as §1

[6] = molecular target: Fuc(a1-2)Gal(b1-3)GlcNAc(b1-2)Man(a1-3)[Fuc(a1-2)Gal(b1-3)GlcNAc(b1-2)Man(a1-6)]Man(b1-4)GlcNAc(b1-4)GlcNAc
In short: as §1

[7] = molecular target: Fuc(a1-2)Gal(b1-3)GlcNAc(b1-2)Man(a1-3)[Fuc(a1-2)Gal(b1-3)GlcNAc(b1-2)Man(a1-6)]Man(b1-4)GlcNAc(b1-4)[Fuc(a1-6)]GlcNAc
In short: as §1

[8] = molecular target: Fuc(a1-2)Gal(b1-3)GlcNAc(b1-3)Gal(b1-4)Glc
In short: as §1

[9] = molecular target: Fuc(a1-2)Gal(b1-3)GlcNAc(b1-3)GalNAc
In short: as §1

[10] = molecular target: Fuc(a1-2)Gal(b1-3)GlcNAc(b1-3)[Fuc(a1-2)Gal(b1-3)GlcNAc(b1-6)]GalNAc
In short: as §1

[11] = molecular target: Fuc(a1-2)Gal(b1-3)GlcNAc(b1-3)[Gal(b1-4)GlcNAc(b1-6)]Gal(b1-4)Glc
In short: as §1

[12] = molecular target: Fuc(a1-2)Gal(b1-3)GlcNAc(b1-3)[Neu5Ac(a2-6)Gal(b1-4)GlcNAc(b1-6)]Gal(b1-4)Glc
In short: as §1

[13] = molecular target: Fuc(a1-2)Gal(b1-3)GlcNAc6S
In short: as §1

[14] = molecular target: Fuc(a1-2)Gal(b1-3)[Fuc(a1-4)]GlcNAc
In short: as §1

[15] = molecular target: Fuc(a1-2)Gal(b1-3)[Fuc(a1-4)]GlcNAc(b1-2)Man(a1-3)[Fuc(a1-2)Gal(b1-3)[Fuc(a1-4)]GlcNAc(b1-2)Man(a1-3)]Man(b1-4)GlcNAc(b1-4)GlcNAc
In short: as §1

[16] = molecular target: Fuc(a1-2)Gal(b1-3)[Fuc(a1-4)]GlcNAc(b1-2)Man(a1-3)[Fuc(a1-2)Gal(b1-3)[Fuc(a1-4)]GlcNAc(b1-2)Man(a1-6)]Man(b1-4)GlcNAc(b1-4)[Fuc(a1-6)]GlcNAc(b1-4)[Fuc(a1-6)]GlcNAc
In short: as §1

[17] = molecular target: Fuc(a1-2)Gal(b1-3)[Fuc(a1-4)]GlcNAc(b1-3)[Fuc(a1-3)[Gal(b1-4)]GlcNAc(b1-6)]Gal(b1-4)Glc
In short: as §1

[18] = molecular target: Fuc(a1-2)Gal(b1-3)[Fuc(a1-4)]GlcNAc(b1-3)[Gal(b1-4)GlcNAc(b1-6)]Gal(b1-4)Glc
In short: as §1

Fuc(a1-2)Gal(b1-4)Glc = molecular target: Fuc(a1-2)Gal(b1-4)Glc
In short: as §1

Fuc(a1-2)Gal(b1-4)Glc6S = molecular target: Fuc(a1-2)Gal(b1-4)Glc6S
In short: as §1

Fuc(a1-2)Gal(b1-4)GlcNAc = molecular target: Fuc(a1-2)Gal(b1-4)GlcNAc
In short: as §1

[19] = molecular target: Fuc(a1-2)Gal(b1-4)GlcNAc(b1-2)Man
In short: as §1

[20] = molecular target: Fuc(a1-2)Gal(b1-4)GlcNAc(b1-2)Man(a1-3)[Fuc(a1-2)Gal(b1-4)GlcNAc(b1-2)Man(a1-6)]Man(b1-4)GlcNAc(b1-4)GlcNAc
In short: as §1

[21] = molecular target: Fuc(a1-2)Gal(b1-4)GlcNAc(b1-2)Man(a1-3)[Fuc(a1-2)Gal(b1-4)GlcNAc(b1-2)Man(a1-6)]Man(b1-4)GlcNAc(b1-4)[Fuc(a1-6)]GlcNAc
In short: as §1

[22] = molecular target: Fuc(a1-2)Gal(b1-4)GlcNAc(b1-2)[Fuc(a1-2)Gal(b1-4)GlcNAc(b1-4)]Man(a1-3)[Fuc(a1-2)Gal(b1-4)GlcNAc(b1-2)Man(a1-6)]Man(b1-4)GlcNAc(b1-4)GlcNAc
In short: as §1

[23] = molecular target: Fuc(a1-2)Gal(b1-4)GlcNAc(b1-3)Gal(b1-4)GlcNAc
In short: as §1

[24] = molecular target: Fuc(a1-2)Gal(b1-4)GlcNAc(b1-3)Gal(b1-4)GlcNAc(b1-2)Man(a1-3)[Fuc(a1-2)Gal(b1-4)GlcNAc(b1-3)Gal(b1-4)GlcNAc(b1-2)Man(a1-6)]Man(b1-4)GlcNAc(b1-4)GlcNAc
In short: as §1

[25] = molecular target: Fuc(a1-2)Gal(b1-4)GlcNAc(b1-3)Gal(b1-4)GlcNAc(b1-3)Gal(b1-4)GlcNAc
In short: as §1

[26] = molecular target: Fuc(a1-2)Gal(b1-4)GlcNAc(b1-3)GalNAc
In short: as §1

[27] = molecular target: Fuc(a1-2)Gal(b1-4)GlcNAc(b1-3)[Fuc(a1-2)Gal(b1-4)GlcNAc(b1-6)]GalNAc
In short: as §1

[28] = molecular target: Fuc(a1-2)Gal(b1-4)GlcNAc(b1-3)[Fuc(a1-3)[Gal(b1-4)]GlcNAc(b1-6)]Gal(b1-4)Glc
In short: as §1

[29] = molecular target: Fuc(a1-2)Gal(b1-4)GlcNAc(b1-6)GalNAc
In short: as §1

[30] = molecular target: Fuc(a1-2)Gal(b1-4)GlcNAc6S
In short: as §1

[31] = molecular target: Fuc(a1-2)Gal(b1-4)[Fuc(a1-3)]GlcNAc
In short: as §1

[32] = molecular target: Fuc(a1-2)Gal(b1-4)[Fuc(a1-3)]GlcNAc(b1-2)Man(a1-3)[Fuc(a1-2)Gal(b1-4)[Fuc(a1-3)]GlcNAc(b1-2)Man(a1-6)]Man(b1-4)GlcNAc(b1-4)[Fuc(a1-6)]GlcNAc
In short: as §1

[33] = molecular target: Fuc(a1-2)Gal(b1-4)[Fuc(a1-3)]GlcNAc(b1-2)[Fuc(a1-2)Gal(b1-4)[Fuc(a1-3)]GlcNAc(b1-4)]Man(a1-3)[Fuc(a1-2)Gal(b1-4)[Fuc(a1-3)]GlcNAc(b1-2)Man(a1-6)]Man(b1-4)GlcNAc(b1-4)GlcNAc
In short: as §1

[34] = molecular target: Fuc(a1-2)Gal(b1-4)[Fuc(a1-3)]GlcNAc(b1-3)Gal(b1-4)[Fuc(a1-3)]GlcNAc
In short: as §1

[35] = molecular target: Fuc(a1-2)Gal(b1-4)[Fuc(a1-3)]GlcNAc(b1-3)Gal(b1-4)[Fuc(a1-3)]GlcNAc(b1-3)Gal(b1-4)[Fuc(a1-3)]GlcNAc
In short: as §1

[36] = molecular target: Fuc(a1-2)Gal(b1-4)[Fuc(a1-3)]GlcNAc(b1-3)GalNAc
In short: as §1

[37] = molecular target: Fuc(a1-2)Gal(b1-4)[Fuc(a1-3)]GlcNAc(b1-3)[Neu5Ac(a2-6)Gal(b1-4)GlcNAc(b1-6)]Gal(b1-4)Glc
In short: as §1

[38] = molecular target: Fuc(a1-2)Gal3S(b1-4)GlcNAc
In short: as §1

[39] = molecular target: Fuc(a1-2)Gal6S(b1-3)GlcNAc
In short: as §1

B1: Pwp5 ND (Candida glabrata) (protein)
chain: MGSSHHHHHHSSGLVPRGSHMASANPVPLTNVCYFPEEYPRQAGFRAITAGLASTILQGSVDELLNYSGLSSLTTQQTTTTTPNFQLPTLPLPTNVYGLTVVPLYLLVQLQGYFVPPVSGQYTFSLENTNDAAIIFFGNPSAFPCGDLSAWPQASADDITVTDGTFPSRTLFLKAGVAYPMRISYYNSLGSGNLAVSFTDPGGTKRTNWNGYIWRYNSCSTCTYT
Fuc(a1-2)Gal
  glycan array binding signal (z-score): -0.566
Fuc(a1-2)Gal(b1-3)GalNAc
  glycan array binding signal (z-score): -0.411
[1]
  glycan array binding signal (z-score): -0.519
[2]
  glycan array binding signal (z-score): -0.543
[3]
  glycan array binding signal (z-score): 0.177
[4]
  glycan array binding signal (z-score): 1.36
[5]
  glycan array binding signal (z-score): -0.235
Fuc(a1-2)Gal(b1-3)GlcNAc
  glycan array binding signal (z-score): -0.53
[6]
  glycan array binding signal (z-score): 1.49
[7]
  glycan array binding signal (z-score): -0.08
[8]
  glycan array binding signal (z-score): -0.48
[9]
  glycan array binding signal (z-score): -0.554
[10]
  glycan array binding signal (z-score): 1.05
[11]
  glycan array binding signal (z-score): -0.322
[12]
  glycan array binding signal (z-score): -0.533
[13]
  glycan array binding signal (z-score): -0.214
[14]
  glycan array binding signal (z-score): 0.311
[15]
  glycan array binding signal (z-score): 0.379
[16]
  glycan array binding signal (z-score): 0.234
[17]
  glycan array binding signal (z-score): -0.557
[18]
  glycan array binding signal (z-score): -0.696
Fuc(a1-2)Gal(b1-4)Glc
  glycan array binding signal (z-score): -0.398
Fuc(a1-2)Gal(b1-4)Glc6S
  glycan array binding signal (z-score): -0.615
Fuc(a1-2)Gal(b1-4)GlcNAc
  glycan array binding signal (z-score): -0.057
[19]
  glycan array binding signal (z-score): -0.373
[20]
  glycan array binding signal (z-score): -0.139
[21]
  glycan array binding signal (z-score): 0.066
[22]
  glycan array binding signal (z-score): 2.82
[23]
  glycan array binding signal (z-score): 1
[24]
  glycan array binding signal (z-score): 0.084
[25]
  glycan array binding signal (z-score): -0.333
[26]
  glycan array binding signal (z-score): -0.443
[27]
  glycan array binding signal (z-score): 0.487
[28]
  glycan array binding signal (z-score): -0.054
[29]
  glycan array binding signal (z-score): 3.91
[30]
  glycan array binding signal (z-score): -0.516
[31]
  glycan array binding signal (z-score): -0.206
[32]
  glycan array binding signal (z-score): 0.134
[33]
  glycan array binding signal (z-score): -0.095
[34]
  glycan array binding signal (z-score): -0.47
[35]
  glycan array binding signal (z-score): -0.252
[36]
  glycan array binding signal (z-score): -0.285
[37]
  glycan array binding signal (z-score): -0.571
[38]
  glycan array binding signal (z-score): 2.21
[39]
  glycan array binding signal (z-score): -0.471
